Data on 29 molecules can be found in the supplement of paper PMC12632987.

Over roughly 4,500 sequences, “median log2 fold change of GCK-ALFA target abundance (FLAG IP / Myc IP barcode read proportion)” has its median near 0.078; the lowest 2% begin near -0.6. This is one part of the list.

The labels stand for the following.
B1: GBRAP_184_5192 (protein)
chain: KVLEYTLEANNLEELKEKMEELKKLAEKEKADLYLIAKLPEVTEEMIKALMDALKEIKEKGYSKNITVLLEGKLTEEQIDLALELADKAGVKLTIALDEE
B2: GBRAP_128_3376 (protein)
chain: VNEEFLEKVRKLVEEMLTSSVEEVAELTREIVDLLETASLEEQEAAVEIILEYIPKFSVEKLDAIADVLRERRKTASPELQELLAEVEVEALNEAEELEE
B3: GBRAP_39_5701 (protein)
chain: EEEEENEEVFSYTEAVGAGYMYETGISLEEAVEEAKEIFTEEAEKHPELKELFDRLIEVLENGDEETKIAVIGLAVLIKKGTPLEEIRELAEKLLAYFES
B4: GBRAP_83_6951 (protein)
chain: KEKIVVAANDDNVEEAVKIAEDLAKTGKYEVTLEFIGDVESARKLIEEVEKALKKGVKFDVEILLEGATEEEAEEIRREFEKVAKEAGADVKVEVHVIKP
B5: GBRAP_11_2695 (protein)
chain: KKEKLKEAAELAEELAKLLEELLEKGVDNEELLKKIEEKIEKLLKLTKEYGDEGLKKLAEILKELYEKALKDPENKEKYLEEALAAARVLEGQYLLEIEE
B6: GBRAP_11_2923 (protein)
chain: KKEKLKKIAELAEELAKILEKLIKEGVDNEELLKEAEKKLKELKELVEKYADEASKKLAKIAEELFEEALKDKENRLEYLKKALATVRVLSGQFLLELEE
B7: GBRAP_128_3225 (protein)
chain: STEELKEEVRKLLEAIKKANKEEAKKLAKELARLVASSSVEEAEAMLEVIEELAPEMSEEDLDILIDAFVEEARKLDSEVSLILLDAAIVFGEELLEKEE
B8: GBRAP_160_4390 (protein)
chain: SAAYEALAKEVTDILDEAIKLIEGESAEQRKVIVDVALGQIRLAAFSNDAVSDEDEDKIDAILDKGRAAIDKAIEKGLDAVVAEINKLRDELLAAIKALA
B9: GBRAP_35_5614 (protein)
chain: ETTELAVESFVDMAEAIIELIPEEDDETIAALANALIKYARSLLKEEKNNKEALEKIKEALEKLLKALKKHRSDNPLMQEVAKKVEEAIKEAKEAIAKVK
B10: GBRAP_125_3102 (protein)
chain: EEEELLEALRRLALALGFSEEEAEEAARLAREFSLRQTLIALLLAEGEEELAELVEKLTEEQAKEVLRRLAEYLEAHPDATREEVVAKLRELVEEALAAA
B11: GBRAP_160_4210 (protein)
chain: SELIEKIIKDIKEATEEVIKLIPEESREEVANFAAVEFGSVLMEAVDDGLENDEILDTIADAADEIVKTLLENKDASPEEVAKKLKEITEKAIKEIKKIA
B12: GBRAP_52_6323 (protein)
chain: AEARVRAYAAALVAAIRAGDDAGARALADRIVAELTPEEILRLAELVARAIAGEDDAVHERAAEVFEYLAERVIEEKGDERTAAEILGIYARTLYAAEQA
B13: GBRAP_160_4250 (protein)
chain: EERIKKLEKEITDEANVLLEALAESPKSAWPAFARAMAGDIVQIVIDDPNASDETIEKVDKLADELAARLVAAKDASPAELKALLDEGVKKIIEAVKKEI
B14: GBRAP_137_3640 (protein)
chain: MKVTIRVERHEDLVEITITVDDPEKAEEVAELITDLAVAHGALAISVEIKEDGTLEAVIWVPVERAEALIAAIVDALQSKFGATVTVEDLDTGEVRTYTP
B15: GBRAP_160_4398 (protein)
chain: EEEYKKLKEEVNEIFDETLELIEGESPEQRKVILRVSFGEVLLAAEENPAISDEGEEEIAKILDKYLEKGLAAVDEGLEAVVKVVNEAREEVLKKIEELA
B16: GBRAP_184_5166 (protein)
chain: MIKEFEIKIENVEEAKEKIEEIKKEVEGLKAELYVIVETKELTVEIAKAILEGLKEMKEKGYVTSITVEFTGKIDEETLDVAVKLADEAGVKLVIAIDEE
B17: GBRAP_128_3260 (protein)
chain: MNEEVVAYAKEVVEKIKNSNAEEAQKIADEFMEWLLNSSLEDAEQAVDVVISRLDELTAEQLDILADAARKHRPLASPEKAELLADLEVEALNRALEKEE
B18: GBRAP_64_6478 (protein)
chain: DPEIEELLEELLEEARRLLEHFRRENPELAPRAEEIVKLLEEAKTASIEERLDLVVEVADRLVELLRDPRVSPEGRDLLAEALDLAMALASLLFEKEMEE
B19: GBRAP_160_4651 (protein)
chain: SEEVEKLKEEIREIIEEALEMMKGESHEERIAVARVMTGDILLLLDENPLVSDEAREEVDKIGDKVVETLEENPDLSDEEIEELLEEALKEIEKVLEKYT
B20: GBRAP_80_6784 (protein)
chain: MEEELEEALAKLEEINKKTAEIVKEIVDLLKEAGASLEIILEIVKDFLDGKDLDEETLEKIAKETLEFAKELLAESEHLSIDDIGKLVLAEAATLIEEAE
B21: GBRAP_184_5124 (protein)
chain: TLVRASVEADDAEELIAAARAVVEAAAAAGARLDLHVFAKNLSVEEVIEVIRALGELRAAHPDVRVTLDVLDERNEEELDKLVKAADEAGVRLVVALKEE
B22: GBRAP_160_4660 (protein)
chain: SEEIEKLKEEIKEIIEEAKKMVEGESHEQRVAIARVMVGQIILEMEESEEISEEAVDEVDKIGRELVATLEANPDLSDEEVKALIEEMLEKILEVIDKHS
B23: GBRAP_128_3237 (protein)
chain: WDPAVKAEAEALIKTIVEGTEEEAAEATAKLVDLMSTVNLEEAEEIAEMLIKALEKLTAEKLDVVADTLRKNRGKLDPEKATLAYDVEIEALNLAEELEE
B24: GBRAP_128_3495 (protein)
chain: STEELVERTRELMRRIGEADAEEAARLTRELVELLASANEEEREAMVEVVRELLPELDAEKLDVVADTLEEEMPSLNPEVANLVADIRVEALNAAEEKEE
B25: GBRAP_160_4108 (protein)
chain: SAGAEAILADFREVFAEVLELWDEVSPEELVAYYEVETGSVIMDAMENYGLSDETADRLLDIRDEAAARLLAHGNVSREEVERILAEALARIEAAVAAAA
B26: GBRAP_160_4821 (protein)
chain: SESLEEALKLIEETAKEILELSKGESPEERAVIAAVEYGRLILELSEIPEVSDELEEEVDKIADEFVQEILDNPDITEEEFRELIERAKKEIEEAVKKHF
B27: GBRAP_52_6150 (protein)
chain: SEAEAKAYADRFIAAVKAGDRAKALAIMKEIAATMSEEEITLFMDHVAAQVATLTDEQKELVVELMIEFEDIAEAAGHDPDLLSYQLAVVAGAAYDAIQK
B28: GBRAP_52_6250 (protein)
chain: MEERMRELAERILELVKEGKYEEARELVREIAARLNEEELRLLIDELARLAEESRKEDIEAVWKAAEIIAEVLEEEGKPEILADYLESKVAAALVKVEEK
B29: GBRAP_95_7068 (protein)
chain: SEEAEIAAALADTMALYLEAGLLEHAARDLVAIAEEAEAHPDLKIEFPATPEQLRRALRALAAIRPREEAIRVAEVLARHAADPEHRAALEETAAELRAE

Sequence of GABARAP, O95166 (O95166 whole entry, the tested form may be a part): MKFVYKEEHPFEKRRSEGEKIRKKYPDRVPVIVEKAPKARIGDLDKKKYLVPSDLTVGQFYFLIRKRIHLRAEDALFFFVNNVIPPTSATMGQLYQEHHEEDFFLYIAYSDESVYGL

The assay addresses GABARAP, O95166. The experiment in a line: median log2 fold change of GCK-ALFA target abundance (FLAG IP / Myc IP barcode read proportion) (log2 ratio); each designed protein is fused to an ALFA-tag nanobody in HEK293 cells to bring the named protein to FLAG-tagged glucokinase (GCK); Myc marks an untargeted standard; higher = target protein stabilised (more abundant). The note with it: target protein: 3xFLAG-MCP-GCK-ALFA reporter; HEK293 landing pad (RPLP). As to the method:
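LABEL-seq trans screen in HEK293 landing-pad cells. Each de novo designed 100-aa effector handle, binding the indicated effector (E3 ligase, DUB or autophagy protein), is fused to a constant NbALFA target handle and induced with 2 ug/mL doxycycline. A FLAG-MCP-GCK-ALFA target and a Myc-MCP standard reporter were transfected, and after 48 h circRNA barcodes were recovered by anti-FLAG and anti-Myc IP and sequenced. The value is the median across barcodes (at least 3 per design) of log2(FLAG/Myc read-proportion ratio), with the two transfection replicates pooled. Negative values mean degradation and positive values mean stabilisation of the target.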
Take B1: the “median log2 fold change” value was 0.127.
The result for B2 reads 0.0671; that for B3, 0.236.
The same measure for B4: 0.235; for B5: 0.0661.
The result for B6 reads 0.16.
For B7, the “median log2 fold change” value was -0.0542.
For the molecule B8, the “median log2 fold change” value was 0.171.
The same measure for B9: 0.0138.
As for B10, the “median log2 fold change” value was -0.364.
The result for B11 reads -0.314; that for B12, 0.156; that for B13, -0.183.
The result for B14 reads -0.0441.
For the molecule B15, the “median log2 fold change” value was 0.0233.
On to B16, for which the “median log2 fold change” value amounted to 0.0333.
The same measure for B17: 0.278; for B18: -0.525.
The result for B19 reads -0.0566; that for B20, 0.182; that for B21, -0.0596.
The result for B22 reads 0.165; that for B23, 0.0017.
Consider B24, for which the “median log2 fold change” value was determined as 0.23.
The same measure for B25: -0.764; for B26: -0.0527; for B27: 0.0147.
The same measure for B28: 0.271; for B29: 0.195.
